Reference: ChEMBL document CHEMBL4888484, “Replenishing the malaria drug discovery pipeline: Screening and hit evaluation of the MMV Hit Generation Library 1 (HGL1) against asexual blood stage Plasmodium falciparum ,using a nano luciferase reporter read-out” (2022)
Values joined by “and” are separate entries in the source; they are usually repeats but may differ in a detail not shown here. Equal values may be shown once. Among all 150,000 compounds or so, about 540 (0.36%) showed an effect of 50% or more. The list shows a part of the results.

Tested on: Plasmodium falciparum
Experiment: Primary screen in NF54 nanoGlo assay, in single point, at 2uM, 72h; a lower Z score goes with more inhibition
Assay type: functional, Erythrocyte
Details: timepoint 72 hour

In the case of `CCc1ccc([C@@H]2CN(C(=O)c3cscn3)CCN2)cc1`, the “% Inhibition” value was -4% and the Z score was 0.61.
With `CC(=O)Nc1nc(C(=O)N2CCc3[nH]ncc3C2)cs1` the “% Inhibition” value was -7% and the Z score was 1.12.
In the case of `CC1CC(O)(/C=C/C2(O)CCCCC2)C(C)CN1C` (stereo not drawn), the “% Inhibition” value was -12% and the Z score was 1.36.
For `O=C(CC1CCCC1)NCCCOC[C@H]1CCCO1`, the “% Inhibition” value was 5% and the Z score was -0.7.
`COc1ccc(-c2ccc(N3CCCN(C(=O)CN(Cc4ccco4)C(=O)c4ccc(Cl)cc4Cl)CC3)nn2)cc1OC` was tested, and the “% Inhibition” value was -19% and the Z score was 2.77.
`O=C(CCn1cnnn1)N1CCc2[nH]c3ccc(F)cc3c2C1` was tested, and the “% Inhibition” value was -1% and the Z score was 0.14.
For `C=C(C)CC(C)C(=O)N1CCCCC1C(C)CN(C)C` (stereo not drawn), the “% Inhibition” value was -12% and the Z score was 1.48.
`CC(=O)N1CCN(C(=O)NCc2cc(F)ccc2C)C[C@@H](O)C1` was tested, and the “% Inhibition” value was -9% and the Z score was 0.8.
`CC(NC(=O)C1CCCN(c2nc3ccccc3n2C2CCCC2)C1)c1ccccc1` (stereo not drawn) was tested, and the “% Inhibition” value was -11% and the Z score was 1.49.
`CC1(C)CCc2nnc(-c3cccnc3)n2C1` was tested, and the “% Inhibition” value was -5% and the Z score was 0.9.
For `CCc1ccc(C(NC(=O)C2CCNC2)C(C)(C)C)o1` (stereo not drawn), the “% Inhibition” value was 46% and the Z score was -5.46.
In the case of `Cn1cc(CNC(=O)c2coc(COc3cccc(C(F)(F)F)c3)n2)cn1`, the “% Inhibition” value was -11% and the Z score was 1.32.
With `CCCOc1ccc(CCNC(=O)N(C)[C@H]2CS(=O)(=O)C[C@@H]2O)cc1` the “% Inhibition” value was 3% and the Z score was -0.53.
With `Cc1ccc(S(=O)(=O)NCC(F)(F)CO)o1` the “% Inhibition” value was -6% and the Z score was 0.99.
In the case of `CC(C)c1ncc(-c2ccc(C(=O)NCCc3ncnn3C)cc2)s1`, the “% Inhibition” value was -11% and the Z score was 1.47.
`O=C(c1cccc2cc[nH]c12)N1CCN(Cc2cccc(-c3noc(-c4cccc(C(F)(F)F)c4)n3)c2)CC1` was tested, and the “% Inhibition” value was 8% and the Z score was -0.96.
In the case of `CC(C)(C)n1nnc(CNC(=O)NC2CC(=O)N3CCCCC23)n1` (stereo not drawn), the “% Inhibition” value was -9% and the Z score was 1.22.
With `Cc1cc(NC(=O)COC(=O)[C@H]2CC(=O)N(c3ccccc3)C2)no1` the “% Inhibition” value was 9% and the Z score was -1.06.
`CC(C)N(CC(=O)N(Cc1cccn1Cc1ccccc1Cl)C1CCCCC1)S(=O)(=O)c1ccc2ccccc2c1` was tested, and the “% Inhibition” value was -6% and the Z score was 0.94.
With `Cc1nnsc1CN(C)C(=O)COC[C@H]1CCCCO1` the “% Inhibition” value was -13% and the Z score was 1.63.
For `OC[C@@H](c1ccc(Cl)cc1)N1CCN(Cc2nncs2)CC1`, the “% Inhibition” value was 4% and the Z score was -0.9.
For `O=C(CNS(=O)(=O)c1ccc2ncccc2c1)NC1CCCCC1`, the “% Inhibition” value was -14% and the Z score was 1.95.
For `O=C(Nc1ccc(F)c(F)c1)c1ccc(-c2c(-c3ccc(F)cc3)ncn2C2CCCC2)o1`, the “% Inhibition” value was -3% and the Z score was 0.52.
For `CC(=O)N[C@H](C(=O)Nc1cc(F)ccc1C)C(C)C`, the “% Inhibition” value was -18% and the Z score was 1.53.
For `Cc1nc(N2CCOCC2)c2c(C(=O)Nc3cc(Cl)ccc3C)c(C)oc2n1`, the “% Inhibition” value was 6% and the Z score was -1.08.
In the case of `COc1ccccc1NC(=S)Oc1cccc(C(=O)Nc2ccc3ccccc3c2)c1`, the “% Inhibition” value was -7% and the Z score was 1.06.
`Cc1ncc2c(c1-c1noc(-c3ccc4ccccc4n3)n1)CCNC2` was tested, and the “% Inhibition” value was -8% and the Z score was 1.16.
With `CCn1nncc1C(=O)Nc1nn(-c2cccnc2)cc1C` the “% Inhibition” value was -3% and the Z score was 0.6.
With `CCN(CC(=O)Nc1c(F)cccc1F)C(=O)CCOc1ccccc1` the “% Inhibition” value was -14% and the Z score was 2.24.
`CCNC(=O)NC1CN(C(C)c2ncc(C(C)(C)C)o2)C[C@@H]1OC` (stereo partly drawn) was tested, and the “% Inhibition” value was 6% and the Z score was -0.86.
For `CCC(=O)NCc1nc2c(n1C)CN(C(=O)c1cc(F)cc(F)c1)CC2`, the “% Inhibition” value was 10% and the Z score was -1.12.
With `Cc1cc(=O)c(CO)nn1Cc1cc(Cl)c2c(c1)OCCO2` the “% Inhibition” value was 11% and the Z score was -1.39.
`CN(C)c1nc(N)nc(CN2CCC3CCCCC3C2)n1` (stereo not drawn) was tested, and the “% Inhibition” value was 7% and the Z score was -0.66.
For `CC(=O)Nc1cccc(NC(=O)CN2CC[C@@H](C(F)(F)F)C2(C)C)c1`, the “% Inhibition” value was 3% and the Z score was -0.42.
For `O=C(NCCc1cc(F)cc2c1OCOC2)c1cccc[n+]1[O-]`, the “% Inhibition” value was -50% and the Z score was 5.85.
For `O=C(c1cccc(Cl)c1)[C@H]1CCCN(C(=O)c2ccn(C(F)F)n2)C1`, the “% Inhibition” value was -1% and the Z score was 0.25.
With `C=CCNC(=O)CN1C(=O)N[C@@H](C(C)C)C1=O` the “% Inhibition” value was -4% and the Z score was 0.86.
In the case of `CCOc1ccc(-n2ccc(=O)c(C(=O)Nc3ccc(S(=O)(=O)N4CCC(C)CC4)cc3)n2)cc1`, the “% Inhibition” value was -5% and the Z score was 0.92.
With `COCCN1C(=O)[C@@H]2C[C@@H](CN2Cc2nccn2C)Oc2ccccc21` the “% Inhibition” value was 0% and the Z score was 0.
In the case of `O=C1CCCC[C@@H](C(=O)Nc2ccc(-c3nncs3)cc2)N1`, the “% Inhibition” value was -3% and the Z score was 0.5.
For `Cc1onc(-c2ccccn2)c1C(=O)Nc1ncc(C2CCNCC2)s1`, the “% Inhibition” value was -10% and the Z score was 1.49.
With `COc1ccccc1CNCC1CCOC1c1c(C)nn(C)c1C` (stereo not drawn) the “% Inhibition” value was -9% and the Z score was 0.99.
In the case of `Cc1ccc(NC(=O)NC(Cc2ccc3c(c2)OCO3)Cc2ccc3c(c2)OCO3)cc1`, the “% Inhibition” value was -8% and the Z score was 1.53.
`Fc1ccc(-n2nc(C3CCOCC3)nc2-c2cn[nH]c2)c(F)c1` was tested, and the “% Inhibition” value was 6% and the Z score was -0.9.
For `C/N=C1/c2cc3ccccc3n2CCN1C`, the “% Inhibition” value (2 µM) was -13% and -9% and the Z score (2 µM) was 1.7 and 0.84.
In the case of `O=C(Cn1cncn1)N1CC[C@@]2(CCCN(Cc3ccc(F)c(F)c3)C2)C1`, the “% Inhibition” value was -13% and the Z score was 1.39.
With `Cc1cc(C)n([C@@H](CNC(=O)CN2C(=O)CCC2=O)c2ccsc2)n1` the “% Inhibition” value was 17% and the Z score was -2.36.
`O=C(Cc1ccccc1O)NC1(CN2CCN(c3ccc(F)cc3)CC2)CC1` was tested, and the “% Inhibition” value was -4% and the Z score was 0.38.
With `Cc1nn(-c2ccccc2)c(C)c1[C@H]1CC(=O)Nc2c1cnn2C` the “% Inhibition” value was 31% and the Z score was -3.47.
`C#CCN1C(=O)C2(NC(=O)C3CCCCN32)c2ccccc21` (stereo not drawn) was tested, and the “% Inhibition” value was -1% and the Z score was 0.18.
In the case of `O=C(O)CCc1cc2n(n1)CCCN(Cc1ccc(C(F)(F)F)nc1)C2`, the “% Inhibition” value was 3% and the Z score was -0.63.
With `CC(=O)Nc1cccc(Oc2c(-c3ccccc3)c3ccccc3[nH]c2=O)c1` the “% Inhibition” value was -5% and the Z score was 0.97.
With `CO[C@@H](C)c1nc(Cn2ccc(-c3ccsc3)n2)cs1` the “% Inhibition” value was -2% and the Z score was 0.38.
For `C[C@H]1C[C@@H](C(=O)O)CCN1Cc1cc2ccccc2o1`, the “% Inhibition” value was -3% and the Z score was 0.63.
For `Cc1cc(NC(=O)N2CC[C@H](O)[C@@H](O)C2)n(Cc2ccccc2Cl)n1`, the “% Inhibition” value was -15% and the Z score was 2.88.
For `CCc1cccc2c(C3=CCN(C(=O)Nc4cn[nH]c4)CC3)c[nH]c12`, the “% Inhibition” value was -8% and the Z score was 1.44.
For `O=C(NCCCN1CCOCC1)C1C2CCCC21` (stereo not drawn), the “% Inhibition” value was 38% and the Z score was -5.54.
`COc1ccc(-c2nnc3n2[C@H](C(=O)Nc2ccccc2OC(F)F)CC(O)=N3)cc1` was tested, and the “% Inhibition” value was 31% and the Z score was -3.55.
With `O=C(COc1ccc(Cl)cc1Br)Nn1cnc2ccccc2c1=O` the “% Inhibition” value was -4% and the Z score was 0.42.
In the case of `Cc1ccc(-c2ocnc2C(=O)Nc2ccc(Cl)cc2)s1`, the “% Inhibition” value was -3% and the Z score was 0.54.
With `CCOC1CC(O)C12CCN(C(=O)Cn1ccc(C)cc1=O)CC2` (stereo not drawn) the “% Inhibition” value was 4% and the Z score was -0.45.
`O=C(NC1CCCC1n1ccnc1)C1CCCCC1` (stereo not drawn) was tested, and the “% Inhibition” value was 3% and the Z score was -0.39.
In the case of `CCn1c(C)cc(C(=O)CN2CCNC(=O)C2)c1C`, the “% Inhibition” value was -12% and the Z score was 1.11.
For `Cc1cc(Br)cc(C(=O)N2CCCn3nnnc32)c1`, the “% Inhibition” value was -5% and the Z score was 0.61.
With `Cc1cc2c(cc1C)N(CC(=O)Nc1ccccc1)C(=O)[C@H]1CCCC1=N2` the “% Inhibition” value was -2% and the Z score was 0.3.
With `CCN1CCCc2cc(CN(C(=O)Nc3ccc(C)c(C)c3)C3CCCC3)ccc21` the “% Inhibition” value was -1% and the Z score was 0.1.
For `Cc1nn(CC2CCOCC2)c(=O)n1C`, the “% Inhibition” value was -16% and the Z score was 2.34.
In the case of `O=C(CCS(=O)(=O)c1ccc(Cl)cc1)Nc1nc(-c2ccc3c(c2)OCCO3)cs1`, the “% Inhibition” value was 0% and the Z score was 0.09.
In the case of `Cc1cccc(CNc2cc(S(=O)(=O)N3CCOCC3)ccc2N2CCCC2)c1`, the “% Inhibition” value was -10% and the Z score was 1.16.
In the case of `O=C(O)[C@@H]1CN(c2cc(C3CC3)ncn2)C[C@H]1C(F)(F)F`, the “% Inhibition” value was 6% and the Z score was -1.12.
`COc1cccc([C@H]2CC(O)=Nc3nc(N)sc32)c1` was tested, and the “% Inhibition” value was 1% and the Z score was -0.16.
With `O=C(NC[C@H]1CCCO1)c1ccc(-c2ncnc3ccsc23)cc1` the “% Inhibition” value was -7% and the Z score was 1.37.
In the case of `Cc1ccc(C2(CNC(=O)C[C@H](NC(=O)OC(C)(C)C)C3CC3)CC2)c(C)c1`, the “% Inhibition” value was -13% and the Z score was 1.97.
In the case of `Cc1ccc(CCN[C@@H](C)C2CCOCC2)cn1`, the “% Inhibition” value was -5% and the Z score was 0.42.
`Cc1nc(O)c(Cl)c(N2CCC(N3CCOCC3)CC2)n1` was tested, and the “% Inhibition” value was -4% and the Z score was 0.48.
For `Cn1c(-c2cnn(CC3CC3)c2)cc2ccccc21`, the “% Inhibition” value was -3% and the Z score was 0.53.
With `CCOc1ccc(CNC(=O)CN2C(=O)[C@@H]3CCCCN3c3ccc(C(=O)N4CCCC4)cc32)cc1` the “% Inhibition” value was -7% and the Z score was 1.17.
With `Cc1ccc(-n2ncc(C(=O)NC3CCCCC3)c2C2CCN(C(=O)OC(C)(C)C)CC2)c(C)c1` the “% Inhibition” value was -16% and the Z score was 1.57.
With `O=C(C#Cc1ccccc1)NCCc1cnccn1` the “% Inhibition” value was -5% and the Z score was 0.7.
With `CCn1ccnc1[C@H]1OCCC[C@@H]1NC(=O)CCOCC(F)F` the “% Inhibition” value was 15% and the Z score was -1.87.
`C(=C\c1ccco1)/CN(Cc1cccnc1)Cc1ccc2c(c1)OCO2` was tested, and the “% Inhibition” value was 0% and the Z score was -0.01.
In the case of `COc1ccc(-c2ccc3c(ccn3CC(=O)Nc3cnn(C)n3)c2)cc1F`, the “% Inhibition” value was -9% and the Z score was 1.11.
With `c1cn(Cc2ccc(CNc3nc(C4CC4)ns3)cc2)cn1` the “% Inhibition” value was -10% and the Z score was 1.05.
For `CCCN(Cc1ccsc1)S(=O)(=O)c1cnn(C)c1`, the “% Inhibition” value was -10% and the Z score was 1.62.
